# The full ranking holds about 33,000 sequences; the median of “E-score (-0.5 to 0.5)” is about -0.032, and the highest 2% start at about 0.36. This is one part of the list.
# Molecular target: T1, Sko1 (UniProt Q02100)
# T1 sequence: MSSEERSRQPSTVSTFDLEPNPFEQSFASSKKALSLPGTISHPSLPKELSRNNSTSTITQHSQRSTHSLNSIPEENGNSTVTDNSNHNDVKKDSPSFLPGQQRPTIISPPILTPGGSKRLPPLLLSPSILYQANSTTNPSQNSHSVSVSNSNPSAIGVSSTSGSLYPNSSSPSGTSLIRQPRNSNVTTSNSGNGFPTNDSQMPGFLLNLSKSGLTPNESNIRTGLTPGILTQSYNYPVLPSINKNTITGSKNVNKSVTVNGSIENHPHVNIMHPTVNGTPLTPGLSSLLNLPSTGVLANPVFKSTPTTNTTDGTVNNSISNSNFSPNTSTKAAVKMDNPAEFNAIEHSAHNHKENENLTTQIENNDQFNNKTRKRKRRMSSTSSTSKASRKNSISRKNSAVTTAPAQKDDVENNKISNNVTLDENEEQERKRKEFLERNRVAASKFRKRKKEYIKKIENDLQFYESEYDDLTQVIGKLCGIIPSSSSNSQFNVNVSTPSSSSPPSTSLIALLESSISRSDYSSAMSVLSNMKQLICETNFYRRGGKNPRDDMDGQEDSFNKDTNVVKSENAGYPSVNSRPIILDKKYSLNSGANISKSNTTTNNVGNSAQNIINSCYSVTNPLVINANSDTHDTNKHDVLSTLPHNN
# Assay: PBM E-score (8-mer binding enrichment) (E-score (-0.5 to 0.5)); higher = stronger / more preferred TF binding; most listed sequences are background and not binding sites
# Details: protein concentration: 200 nM; construct: GST-full length
# Description: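 Universal 'all 10-mer' protein binding microarrays (Agilent AMADID 015681) probed with GST-tagged S. cerevisiae TFs (full-length or DBD) made by in vitro transcription/translation (PURExpress), about 100-200 nM. Bound TF was detected with fluorescent anti-GST. Each ungapped 8-mer (which stands for itself and its reverse complement) is scored by the PBM enrichment score (E-score), a modified Wilcoxon-Mann-Whitney statistic from -0.5 to +0.5, computed with the Universal PBM Analysis Suite. Scale: above 0.35 generally sequence-specific binding.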
row,Sequence,PBM E-score
1,ACTCTTGC,-0.00172
2,AGAGTAGG,-0.0784
3,AGGGTCCA,-0.398
4,AGTCAAAT,0.0323
5,ATGATAGG,-0.0571
6,GCATACGC,0.218
7,AGCAGTAA,0.0447
8,GTGGTTTA,-0.0512
9,CAGAGCGA,-0.0716
10,AGGGGCGA,-0.388
11,TTATTCAA,0.27
12,AACCCTCG,0.0753
13,CCTCGCAA,-0.116
14,ACATCTAA,0.161
15,GCGCGCCA,0.00109
16,CTCCGGAG,-0.142
17,GACTTAGA,0.0692
18,ACATTGAG,-0.178
19,CACCCTTC,-0.181
20,TTACATAA,0.407
21,TCCGCGGA,-0.0473
22,CAACAAAA,0.159
23,AGGAAACG,0.0727
24,TGAGGCAA,0.0977
25,CCCGTAAC,-0.105

row,Sequence,PBM E-score
1,ACTCTATG,-0.00308
2,ACGGTCAG,-0.188
3,ACTGTGAA,0.0217
4,CAAGGCGA,-0.287
5,CACTTGCA,-0.135
6,GGTGAGAA,-0.0318
7,ACTCGATC,-0.0287
8,CAGTTACG,0.328
9,TCCAGAAA,0.179
10,ATGCTATC,0.0728
11,CTAAGTGA,0.132
12,ACTGTATA,0.142
13,CTAGCGTC,-0.0882
14,ATGAACGG,-0.0873
15,AGTGATCG,-0.136
16,GTATAGAA,-0.026
17,CAAAGAAC,0.0181
18,ACCTCAAC,0.00255
19,CCATCAGA,-0.0968
20,CCCTCAAG,-0.204
21,AGGATCAC,0.0953
22,CTGACGTA,0.489
23,CTCGGTGA,-0.0619
24,CCCTGACC,-0.134
25,CACCACAG,-0.129

row,Sequence,PBM E-score
1,ACCAAACA,0.206
2,ATGATAGA,0.0154
3,GAGAGATA,0.017
4,CCTACAAG,-0.0714
5,CGACTCTA,-0.139
6,ACAGCCCC,-0.291
7,GCGCAGAC,-0.118
8,AAGGCTTC,-0.162
9,CTCCCGAC,-0.172
10,ACGCGATG,0.21
11,CCAGAAGA,-0.0677
12,CCTTTCAA,0.0056
13,CGGTTCAG,-0.142
14,CAGAAATG,-0.0878
15,GGGTGAGA,-0.284
16,AAGTCGCG,0.00322
17,AACGAGCG,0.0965
18,AATCTGGC,-0.0914
19,GATGCTCA,-0.217
20,ATTCTGCG,-0.0414
21,CACCTGAA,0.0843
22,CTGCTTTA,0.073
23,GGACAGTA,0.13
24,CTACCGGA,-0.15
25,TCGGTTCA,-0.116

row,Sequence,PBM E-score
1,CACCTATC,-0.038
2,GCTCGACC,-0.232
3,TAAAATAA,0.213
4,CGGACTTC,-0.314
5,ACAGTAAT,0.175
6,CTGGTGCC,-0.178
7,CGTTGAGC,-0.0646
8,ACGCCCGT,-0.0997
9,TGGACGAA,0.0632
10,ATACCATA,0.163
11,AAATAACT,0.151
12,CATTAAGG,0.0855
13,AGCTATGG,-0.0147
14,CGACACCG,-0.159
15,TACGTCCA,0.404
16,ACGGCGAA,-0.0731
17,ATCTGTAC,0.199
18,CATGAAAC,0.0288
19,CCCTGGTA,-0.171
20,GTCGACGA,0.102
21,GAAAGGCA,-0.0765
22,CAACCTAA,0.0822
23,GGAGTGGA,-0.0495
24,TAGGGCAA,-0.127
25,CAGTCATA,0.0103

row,Sequence,PBM E-score
1,GATCGACC,-0.222
2,ACCCGACC,-0.128
3,CCGCTTGA,-0.114
4,GCGTGGCA,0.0628
5,AACAGGCG,-0.211
6,ATAATGTA,0.158
7,CAGTGTTA,0.125
8,CAGCTATG,0.0563
9,CATGGACA,-0.135
10,GTCGCGCA,0.00385
11,CTACCCAA,0.00502
12,CATGTCCA,-0.116
13,CTACAAAG,0.0381
14,GATCAGAA,-0.185
15,AGTGACAG,-0.0198
16,CATTCAGC,-0.0386
17,AAGGGCAA,-0.266
18,ATACCCCG,-0.31
19,ACTCTACG,0.133
20,ACAGCGTA,0.171
21,GAAGGACA,-0.0317
22,GGAAACCA,-0.237
23,ACTTGTCG,-0.106
24,CAATCAAC,0.137
25,GGCCTGAA,-0.323

row,Sequence,PBM E-score
1,AGTTTCTC,0.0779
2,AAATGTAA,0.268
3,ACCATTTC,-0.0823
4,CCCGTAAG,0.16
5,AACCCATC,-0.0434
6,ATGGACAT,0.0678
7,GTAGTGTA,0.0916
8,CCTCTTTA,-0.0107
9,GCTAAAGC,0.0769
10,CCTAGATC,-0.152
11,ATTATTGG,0.0249
12,ACTCTGCA,-0.0947
13,CGTACAGC,0.173
14,GCGAGCCA,-0.133
15,CAGATCGG,-0.0654
16,ATCACCTG,-0.164
17,TAAGTGAA,-0.0196
18,CGCCACCC,-0.226
19,GGCAAGAC,-0.0442
20,GACCCAAA,0.159
21,GTTATTCA,0.241
22,ATGCACTA,0.0929
23,AGCGATAT,0.112
24,GCCCTCCC,-0.207
25,CCAATTGA,-0.125

row,Sequence,PBM E-score
1,CAAAATAC,0.199
2,CGGTATAA,0.0532
3,AGGCCTAC,-0.0212
4,ATATCCTG,-0.0296
5,CGGTTAAC,0.0142
6,AACAGATT,0.0462
7,AAGCCGTG,-0.175
8,CGGGTTTC,-0.0891
9,CATCGTTA,-0.0268
10,GACCTCAC,0.0442
11,CATTGTGG,-0.248
12,ATTCATTA,0.185
13,TCCCAGCA,-0.208
14,AAAACGCC,0.0157
15,GAGGGCCA,-0.282
16,AGACTGGC,-0.23
17,CTGTTGCA,-0.0821
18,ACCTCTTC,-0.0962
19,GCTATCTA,-0.138
20,GGCTTACC,-0.304
21,CTTCACTC,-0.094
22,AAAACACT,0.0948
23,CGTTAAGC,0.193
24,CCAAGTAC,-0.0618
25,AGGCCCTC,-0.274

row,Sequence,PBM E-score
1,AACGAGAT,-0.0162
2,AGAACGTC,0.314
3,GATTCTCA,0.0391
4,AGGGACGC,-0.0218
5,ACCTGCGC,-0.192
6,AGGCATCG,-0.0424
7,AAGCTGTC,-0.0996
8,GAGTCTGC,-0.218
9,GAACGTAA,0.428
10,CCCTAACA,0.0661
11,CAGCCTTC,-0.239
12,GTACTGGA,0.194
13,AGTCCCGC,-0.313
14,ACGTTGGA,0.247
15,CACCTATA,0.0337
16,GACGGTAA,0.0496
17,AGACGTCG,0.21
18,ACAAAGGA,0.0747
19,CTCCAATA,-0.00438
20,CAATTAGG,0.127
21,ATCGGCCG,-0.229
22,GAAGCGAA,0.116
23,ACATTCGT,0.267
24,AGTATCGG,-0.172
25,ATGATTAA,0.271

row,Sequence,PBM E-score
1,TCACACGA,0.145
2,ACAGACTG,-0.15
3,GCCCTGAC,0.0454
4,TACACTGA,-0.0145
5,GTAAAGAC,0.127
6,CCCTCAAA,-0.174
7,CACTGAGC,-0.00114
8,GTGAGAAC,-0.0909
9,AGCAACCC,-0.00364
10,AGGGATCA,-0.181
11,ATTAATTC,0.28
12,AACGGGGT,-0.179
13,AGAAAACA,0.206
14,CGGAAACC,-0.336
15,ACAAATGC,0.227
16,AAAGGACA,-0.081
17,GTCATGGA,0.163
18,TAGCCGCA,-0.188
19,CAGGACAG,-0.281

# From the supplement of paper PMC3334620
